# Source: PubChem BioAssay AID1466 (National Center for Advancing Translational Sciences (NCATS), 2008)
# About 10 (0.005%) of roughly 200,000 compounds were called active. The inconclusive results got no clear call from the source; some entries with a clear call stand among them for comparison. Calls follow the shape of the dose curve; as a rule, active = well fitted inhibition curve with a large enough effect; inconclusive = small, poorly fitted or top-dose-only effect, or effect the other way, or another doubt; inactive = no such curve, though single readings can be large or run the other way. Potencies of inconclusive entries are left out as doubtful fits.
# Molecular target: Lysosomal alpha-glucosidase (Homo sapiens) (UniProt P10253)
# Experiment: qHTS Assay for Inhibitors of Human alpha-Glucosidase as a Potential Chaperone Treatment of Pompe Disease;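 as to activity change, negative = inhibition: plate controls were uninhibited enzyme wells for no effect and no-enzyme background for full effect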
# Conditions: purified human GAA, 4-MU-alpha-glucoside fluorescence; activity change, negative = inhibition: at 76.9 µM (top of the series) unless noted
# Summary of the method: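 Fluorescence at Ex 365/Em 440 nm from 4-methylumbelliferone reported enzyme activity after 20 min at room temperature. Reactions used 4 nM enzyme and 400 uM substrate at pH 5.0; curves fitted with the Hill equation.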
# Potency is read from the fitted curve at half-maximal effect; tags tell the direction and shape of the fitted curve.
SMILES,Potency,"activity change, negative = inhibition"
CCOC(=O)c1ccccc1NC1CC(=O)N(c2ccccc2C)C1=O (stereo unspecified),"inconclusive [activator, partial curve]",
CCN(CCNC(=O)Nc1ccc(Cl)cc1)c1ccccc1,"inconclusive [inhibitor, single point]",
COc1ccc(N=C2NN=C(c3c(C)[nH]c4ccccc34)CS2)cc1,"inconclusive [inhibitor, single point]",
COc1ccc(-c2cc(-c3ccccc3)c(C#N)c(S(C)(=O)=O)n2)cc1,"inconclusive [activator, single point]",
COc1ccc(Cl)cc1N1C(=O)/C(=C\c2sccc2C)N=C1SCC(=O)NC1CC1,"inconclusive [inhibitor, single point]",
CCCCC(=Nc1ccc(N)cc1)C1=C(O)C(C(=O)OC)C(C)(C)CC1=O (stereo unspecified),inactive,
Oc1ccc(Cl)cc1/C=C/c1ccc2cccc(O)c2n1,"inconclusive [inhibitor, single point]",
CC1CCC(C(C)C)C(OCC(O)CN2CCOCC2)C1 (stereo unspecified),"inconclusive [inhibitor, single point]",
COc1ccc(OC)c(C2=NOC(C(=O)NCCN3CCOCC3)C2)c1 (stereo unspecified),"inconclusive [inhibitor, partial curve]",
CC(C)CN(C(=O)CSc1nn(-c2ccc(Cl)cc2)c(=S)s1)C1CCS(=O)(=O)C1 (stereo unspecified),,inconclusive: 15.6% [activator]
CCCN(CCC)CCCNc1ccc2nnc(-c3ccc(F)cc3)n2n1,"inconclusive [inhibitor, partial curve, poor fit]",
CCCn1nc2cc(C(=O)NCc3ccc(OC(F)(F)F)cc3)ccc2c1OCC,"inconclusive [inhibitor, single point]",
C/C(=N\NC(=O)C1CC1)c1ccc(NC(=O)c2ccc(Br)o2)cc1,,inconclusive: 18.4% [activator]
CCOc1ccc2[nH]c(=O)c(CN(CCO)C(=O)c3ccc(F)cc3)cc2c1,,inconclusive: 17.7% [activator]
COc1ccccc1C(=O)NC(=S)/C=C1/N(C)c2ccccc2C1(C)C,,inconclusive: 4.55% [activator]
CCC12OC(=N)C(C#N)(C1C)C(C#N)(C#N)C(c1ccccc1)O2 (stereo unspecified),"inconclusive [activator, partial curve]",
CCC(=O)N(CCN1CCOCC1)Cc1cc2cc3c(cc2nc1Cl)OCO3,"inconclusive [inhibitor, single point]",
CC(=O)OCCNc1nc(-c2ccccc2)nc2ccccc12,,inconclusive: 1.27% [activator]
CN(CCC#N)C(=O)c1ccc(CNS(=O)(=O)c2ccc(F)cc2)cc1,"inconclusive [inhibitor, full curve, poor fit]",
CC1(C)CC(NCCN2CCN(C3=CC(=C(C#N)C#N)CC(C)(C)C3)CC2)=CC(=C(C#N)C#N)C1,"inconclusive [inhibitor, single point]",
CCOc1ccc2nc(N=NC3=C(O)CC(C)(C)CC3=O)sc2c1,"inconclusive [inhibitor, single point]",

SMILES,Potency,"activity change, negative = inhibition"
CCCc1nc2ccccc2c(=O)n1-c1ccc(C(=O)OCC)cc1,,inconclusive: 16.3% [activator]
Cc1ccccc1C(=O)Nc1ccc2c(C#N)c3nc4ccccc4nc3n2c1,,inconclusive: -15.4% [inhibitor]
Cc1cc(C)cc(NC(=S)NCCN(C2CCCCC2)C2CCCC2)c1,"inconclusive [inhibitor, single point]",
Cc1oc2ccc(O)c(CN(C)C)c2c1C(=O)c1ccccc1,,inconclusive: 15.1% [activator]
O=C(COC(=O)c1cc(S(=O)(=O)N2CCCCC2)ccc1N1CCOCC1)NC1CCS(=O)(=O)C1 (stereo unspecified),"inconclusive [inhibitor, single point]",
Cc1cc(NC(=O)COC(=O)C(Nc2ccc(C(F)(F)F)cc2Cl)C(C)C)no1 (stereo unspecified),"inconclusive [inhibitor, single point]",
CCOC(=O)C1CCN(C(=O)c2cc(OCC)c(OCC)c(OCC)c2)CC1,,inconclusive: -17.5% [inhibitor]
COc1ccc(OCC(O)CNS(=O)(=O)c2cccc(Cl)c2)cc1 (stereo unspecified),"inconclusive [inhibitor, single point]",
O=C(Cc1cccc2ccccc12)Nc1ccc(-c2cc3ccccc3oc2=O)cc1,,inconclusive: 20.9% [activator]
CCOc1ccccc1Nc1cc(C)nc2nc(C)nn12,"inconclusive [inhibitor, partial curve, poor fit]",
Cc1ccc(CNC(=O)c2ccc3c(=O)n(CCCN4CCCC4=O)c(=S)[nH]c3c2)cc1,,inconclusive: -18.8% [inhibitor]
CCOc1ccc(-n2c(C)c(C(C)=O)c(C(C)=O)c2C)cc1,"inconclusive [inhibitor, partial curve]",
CCOC(=O)c1ccc(N=C2S/C(=C\c3cc(C)n(-c4cccnc4)c3C)C(=O)N2C)cc1,,inconclusive: -15.1% [inhibitor]
COc1ccc(N2CCCn3c2nc2c3c(=O)n(Cc3ccc(C)cc3)c(=O)n2C)c(OC)c1,"inconclusive [inhibitor, single point]",
c1ccc(C2Nc3ccccc3-c3nc4ccccc4n32)nc1 (stereo unspecified),"inconclusive [activator, partial curve]",
Cc1cc(C)n(/N=C\c2c(O)ccc3ccccc23)c(=O)c1C(N)=O,inactive,
CCCCn1c(N)c(N(CCC(C)C)C(=O)COC(=O)c2ccco2)c(=O)[nH]c1=O,,inconclusive: -15.9% [inhibitor]
COc1ccc(-c2ccnc3nc(/N=C/N(C)C)nn23)cc1,"inconclusive [activator, single point]",
O=c1c(Cc2ccccc2)c(O)ccn1CCc1cnc[nH]1,"inconclusive [inhibitor, single point]",
N#Cc1nn(-c2ccccc2)nc1N1CCCCC1,"inconclusive [activator, single point]",
